From PubChem BioAssay AID463173 (ICCB-Longwood Screening Facility, Harvard Medical School, 2010) come the findings set out here.

About 1,700 (3.3%) of roughly 52,000 compounds were called active. Rule as the data show it: active = survival mostly below about 52% (no sharp cut-off); inactive = mostly above about 56%. Some of the results follow.

The test system of this experiment is Wild type. Nature of the experiment: growth inhibition of S. aureus wild type versus tarO mutant, primary screen, teichoic acid synthesis inhibitors, RN4220, OD600 (AID 463173). The settings on record: S. aureus RN4220 wild type/DeltatarO growth, OD600, 18 h, stronger effect = lower value, screened at 18.75 µg/mL (by protocol).
Turning to `Cc1ccc(CNC(=O)Cn2ccn(-c3cc(C)cc(C)c3)c(=O)c2=O)cc1`, the survival is inactive: 86%.

On to `O=C(c1ccc(F)cc1)n1nc(-c2ccc(Cl)cc2)nc1NCc1ccco1`, for which the survival was inactive: 76%. For the compound `COc1ccccc1NC(=O)Cn1nc(C)n2cccc2c1=O`, the survival was inactive: 86%. For the compound `CCOc1ccc(-c2cc(NC(=O)Nc3ccccc3C(F)(F)F)c(C(=O)OC)s2)cc1`, the survival is inactive: 72%.

Regarding `Cc1ccc(N2CC(C(=O)NCc3nnnn3-c3ccc(C)c(C)c3)CC2=O)cc1` (stereo not drawn), the survival is inactive: 73%. Take `COC(=O)c1ccc(Cn2c(SCC(=O)Nc3ccc(F)cc3)nc3ccccc32)cc1`: the survival was inactive: 55%. With `CCOc1ccc(NC(=O)Cn2c(=O)n(Cc3ccc(C(=O)NCc4ccc5c(c4)OCO5)cc3)c(=O)c3ccccc32)cc1`, the survival was inactive: 98%. The figure for `Cc1cc(C)cc(NC(=O)CSc2nc(-c3ccccc3)nn2C(=O)c2ccco2)c1` is inactive: 87%; for `CCCCN(CC)Cc1ccc(CNS(=O)(=O)c2cc3c(cc2Cl)NC(=O)CO3)o1` it is active: -3%; for `CCCCOc1ccc(C(=O)Nc2ccc3c(c2)CCCN3S(=O)(=O)c2ccc(C)cc2)cc1` it is inactive: 78%. In the case of `COc1ccc(C(=O)Nc2ccccc2C(=O)OCc2cc(=O)n3nc(C4CC4)sc3n2)cc1`, the survival is inactive: 67%.

On to `CCOc1ccc(NC(=O)Cn2c(=O)cc(C)c3c(C)nn(-c4ccc(CC)cc4)c32)cc1`, for which the survival is inactive: 127%. As for `CCOC(=O)c1c(C)oc2nc(C)nc(Nc3cc(C)ccc3OC)c12`, the survival was inactive: 85%. To `CCOc1ccccc1NC(=O)C1CCCN(S(=O)(=O)c2cn(C)cn2)C1` (stereo not drawn) belongs inactive: 90%; to `CCOC(=O)N1CCc2c(sc3c2c(=O)n(-c2ccc(CC)cc2)c(=O)n3Cc2cc(C)ccc2C)C1`, inactive: 73%; to `CCc1nnc(NC(=O)CSc2nc3c([nH]c4ccccc43)c(=O)n2-c2ccc(OC)cc2)s1`, inactive: 128%. As to `CC(C)c1ccc(/C=C(\C#N)c2nc(-c3ccc(O)cc3)cs2)cc1`, the survival is active: 0%. For `Cc1cc[n+](CC(=O)N2CCCCC2)cc1`, the survival is inactive: 116%.

In the case of `O=C(C1CCCCC1)N(Cc1cccnc1)c1nc2ccc(F)cc2s1`, the survival is inactive: 78%. For the compound `CCc1cccc(NC(=O)COc2cc(=O)n(CC)c3ccccc23)c1`, the survival was inactive: 120%.

As to `Cn1ccc2cc(S(=O)(=O)N3CCN(C(=O)Nc4ccccc4F)CC3)ccc21`, the survival is inactive: 91%. The figure for `CCOC(=O)c1c(Nc2cccc(C)c2)nnc(-c2ccccc2)c1-c1ccccc1` is active: 0%; for `Nc1nc(N)c(S(=O)(=O)c2ccccc2)c(Nc2ccc(F)cc2)n1` it is inactive: 67%; for `CCOC(=O)c1cccc(NC(=O)c2sc3nc[nH]c(=O)c3c2C)c1` it is inactive: 72%. Turning to `COc1cc(-c2ccno2)ccc1S(=O)(=O)N1CCN(c2ccc(F)cc2)CC1`, the survival was inactive: 63%. Consider `CC(C)C(=O)N1CCN(c2ccc(NC(=O)Cc3ccccc3)cc2Cl)CC1`, for which the survival is inactive: 114%. For the compound `CCc1ccc2occ(CC(=O)N(Cc3ccc(N(C)C)cc3)C3CCS(=O)(=O)C3)c2c1` (stereo not drawn), the survival was inactive: 78%. Turning to `O=C(CSc1nc2ccccc2nc1Cc1ccccc1)N1CCCc2ccccc21`, the survival is inactive: 71%. As for `CCCc1cc(=O)[nH]c(Nc2ccc(O)cc2C)n1`, the survival is inactive: 110%. To `Cc1cccc(N(C)S(=O)(=O)c2nnc(NC(=O)C3CCCCC3)s2)c1` belongs inactive: 88%. To `CCOC(=O)N1CCC(NC(=O)c2ccc3c(c2)N(Cc2ccc(Cl)cc2)C(=O)c2ccccc2S3=O)CC1` (stereo not drawn) belongs inactive: 93%; to `COc1ccc(C)c(N2C(=O)CC(N3CCN(c4ccc(F)cc4)CC3)C2=O)c1` (stereo not drawn), inactive: 109%; to `CCCCc1nn2c(=O)cc(COC(=O)c3cccs3)nc2s1`, inactive: 71%.

Take `Cc1ccc(Cn2c(=O)n(Cc3ccccc3Cl)c(=O)c3cccnc32)cc1`: the survival was inactive: 86%. Consider `CCNc1sc(S(C)(=O)=O)nc1S(=O)(=O)c1ccc(C)cc1`, for which the survival is inactive: 119%. As for `Cc1cc(C(=O)N2CCN(c3cc(Cl)ccc3C)CC2)c2c(C)nn(-c3ccccc3)c2n1`, the survival was inactive: 136%. Regarding `Clc1cccc(-n2ncc3c(N4CCCCCC4)ncnc32)c1`, the survival was inactive: 81%.

Regarding `Cn1c(=O)n(C)c2cc(N3CCCC3)c(NC(=O)Nc3ccccc3)cc21`, the survival was inactive: 70%. As to `Cc1cc(S(=O)(=O)NC23CC4CC(CC(C4)C2)C3)ccc1-n1cnnn1`, the survival was inactive: 105%.

Take `Cc1ccc(NC(=O)Cn2ncn3c(cc4ccccc43)c2=O)cc1C`: the survival is inactive: 78%.

Turning to `CCc1ccc(NC(=O)CCNC(=O)Cn2cnc3ccccc3c2=O)cc1`, the survival is inactive: 70%. The figure for `Cc1ccc(CNC(=O)c2cccc(Nc3nc4ccccc4n4nnnc34)c2)cc1` is inactive: 85%; for `Cc1ccc(N2CCN(c3nc4ccccc4c4nnc(C)n34)CC2)c(C)c1` it is inactive: 95%; for `COC(=O)c1ccccc1NC(=O)Cn1c(=O)n(CCCCC(=O)NCc2ccc3c(c2)OCO3)c(=O)c2ccccc21` it is inactive: 87%. Turning to `COc1cc(OC)c(NC(=O)c2c(C)oc3ncnc(N4CCCCC4)c23)cc1Cl`, the survival is inactive: 80%. As for `Cn1c(=O)c2c(nc(N3CCOCC3)n2Cc2ccccc2)n(C)c1=O`, the survival was inactive: 75%. To `Cc1cccc(C)c1NC(=O)Cn1cc(S(=O)(=O)Cc2ccc(F)cc2)c2ccccc21` belongs inactive: 71%; to `CCN(CC)CC(=O)N1CCCC1=O`, inactive: 102%. Turning to `COC(=O)C1C(c2ccccc2)C(C(=O)N2CCN(C)CC2)C1c1ccccc1` (stereo not drawn), the survival is inactive: 109%.

`O=C(Cn1nc(-c2ccc(Cl)cc2)c2ccccc2c1=O)NCCN1CCOCC1`: the survival is inactive: 108%. `Cc1cc(C)cc(NC(=O)Cn2c(=O)n(CC(=O)NCCc3ccccc3)c(=O)c3ccccc32)c1`: the survival was inactive: 83%.

With `C=CCN1C(=O)C(CC(=O)NCC)SC1=Nc1ccc(S(N)(=O)=O)cc1` (stereo not drawn), the survival was inactive: 91%. The figure for `COc1ccc(C(=O)Nc2nnc(SCc3cc(=O)n4cc(Cl)ccc4n3)s2)cc1` is inactive: 55%; for `Cc1ccc(C(=O)c2cn(Cc3c(F)cccc3Cl)c3nc(C)ccc3c2=O)cc1` it is inactive: 70%; for `Cc1ccc(CNC(=O)CN2C(=O)COc3ccccc32)cc1` it is inactive: 83%. Turning to `CCC(C(=O)NCc1ccc2c(c1)CCN2C(=O)c1ccc(F)cc1)c1ccccc1` (stereo not drawn), the survival is inactive: 59%. To `CCc1ccc(C2CC(=O)c3c([nH]c(C(=O)OCc4ccc(C)cc4)c3C)C2)cc1` (stereo not drawn) belongs inactive: 85%; to `Cc1noc(-c2ccc(-c3noc(-c4ccccc4)n3)cc2)n1`, active: -6%; to `O=C(NCCc1ccc(Cl)cc1)c1ccc(CS(=O)(=O)Cc2ccc(Cl)cc2)o1`, inactive: 83%. The figure for `CCc1nc2ccc(C(=O)NCCc3ccc(OC)cc3OC)cc2nc1CC` is inactive: 54%. For the compound `CCOC(=O)c1cc(-c2ccc(C)cc2)n(CCC(=O)Nc2cc(Cl)ccc2C)c1C`, the survival is inactive: 93%. In the case of `CC1CCN(S(=O)(=O)c2ccc3[nH]cc(C(=O)NCc4ccc(F)cc4)c(=O)c3c2)CC1`, the survival is inactive: 81%. As for `O=C(CSc1nccc(=O)[nH]1)Nc1ccc(Cl)cc1`, the survival was inactive: 110%. `CC(=O)c1cc(-c2ccccc2)n(CCC(=O)Nc2nc3c(C)cccc3s2)c1C`: the survival is inactive: 78%.

Take `CCOc1ccc(CCNC(=O)c2cc(Nc3ccc(C)cc3C)nc3ccccc23)cc1OCC`: the survival is inactive: 135%.

Regarding `Cc1ccc(N2CC(NC(=O)Cc3ccc(F)cc3)CC2=O)cc1` (stereo not drawn), the survival was inactive: 85%. For `O=C1Cc2cc(S(=O)(=O)N3CCCCC3)cc3c2N1CCC3`, the survival was inactive: 81%.

`COc1ccccc1NC(=O)Cn1c(=O)n(-c2cccc(Cl)c2)c(=O)c2sc3ccccc3c21`: the survival was inactive: 89%. `COc1cc2[nH]c(=O)n(Cc3ccc(C(=O)NCc4ccc(C)cc4)cc3)c(=O)c2cc1OC`: the survival was inactive: 68%.

Take `Cc1cccc(CSc2nc(=O)c3c(n2C)NC(=O)CC3c2cccc(O)c2)c1` (stereo not drawn): the survival is inactive: 85%. The figure for `Cc1ccc2c(c1)sc1nc(-c3cc4cc(Cl)ccc4oc3=O)cn12` is inactive: 87%; for `O=C(Cn1c(=O)n(Cc2ccc(C(=O)NCc3ccc4c(c3)OCO4)cc2)c(=O)c2ccccc21)Nc1cccc(Cl)c1` it is inactive: 104%. With `CC1=C(C(=O)Nc2cccc(C(F)(F)F)c2)C2(CCCCCC2)OC1=O`, the survival was active: 0%.

As for `CC(C)CCn1c(=O)c2sccc2n2c(CCCC(=O)Nc3ccc(C(C)C)cc3)nnc12`, the survival is inactive: 94%. With `COc1ccc(N2CCN(c3nc4ccccc4n4c(C)nnc34)CC2)cc1`, the survival was inactive: 93%. Regarding `CCOC(=O)CC(NS(=O)(=O)c1cc(-c2cc(C)no2)ccc1C)c1ccc(C)cc1` (stereo not drawn), the survival was inactive: 91%. On to `CCOc1ccc2nc(NC(=O)c3nc(SCc4ccc(C)cc4)ncc3Cl)sc2c1`, for which the survival is inactive: 90%. With `CCOc1ccc(C(=O)Nc2ccc3nc4c(c(Nc5ccccc5OC)c3c2)CCCC4)cc1`, the survival is inactive: 85%. Turning to `Cc1cccc(C)c1NC(=O)CN(C)S(=O)(=O)c1ccc2[nH]c3c(c2c1)CCCC3`, the survival was inactive: 131%. In the case of `Cc1ccc2occ(CC(=O)Nc3c(C(=O)Nc4ccc(Cl)cc4)oc4ccccc34)c2c1`, the survival was inactive: 77%. For the compound `CC(C)COc1ccc(C(=O)N2CCC(c3nc4ccccc4s3)CC2)cc1`, the survival is inactive: 42%. On to `O=C(CC1N=C2c3ccccc3N=C(SCC(=O)Nc3ccccc3F)N2C1=O)NCc1ccc2c(c1)OCO2` (stereo not drawn), for which the survival was inactive: 69%.

Regarding `Cc1ccc(CSc2nncn3c2cc2sccc23)cc1`, the survival was inactive: 87%. Take `O=C1CN=C(Nc2ccc(F)cc2)N1C1CCCC1`: the survival is inactive: 99%.

Consider `CN(C(=O)CSc1nc2ccccc2[nH]1)c1ccc(F)cc1`, for which the survival was inactive: 75%.

As for `COc1ccc(OC)c(S(=O)(=O)NCc2ccc3c(c2)CCN3C(=O)c2cccc(C)c2)c1`, the survival was inactive: 60%. For `Oc1ccc(Br)cc1C=Nc1ccc2[nH]ncc2c1`, the survival was inactive: 104%. To `CCCOCc1cc(CN2CCN(c3ccccc3OC)CC2)c(O)c2ncccc12` belongs inactive: 99%.
